Measured values taken from the RNAGym collection of RNA variant scans (doi:10.1073/pnas.2313332121).
This sample is rich in variants without activity.

B1: TPR 5TU (parent)
chain: GGAUCUUCUCGAUCUAACAAAAAAGACAAAUCUGCCACAAAGCUUGAGAGCAUCUUCGGAUGCAGAGGCGGCAGCCUUCGGUGGCGCGAUAGCGCCAACGUUCUCAACUAUGACACGCAAAACGCGUGCUCCGUUGAAUGGAGUUUAUCAUG

Variants of: B1
Assay: polymerase ribozyme fitness, log enrichment relative to wild type (log ratio); higher = more active; in vitro selection for triplet polymerase activity
Summary of the method: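 Only genotypes with ≥10 input reads and ≥1 read per output were kept after Illumina sequencing of input and output libraries. These libraries were PCR-built, transcribed mutants of each subunit of a heterodimeric triplet polymerase ribozyme, each put through one triplicate in vitro selection round with frozen incubation at −7 °C, gel excision of extended constructs, streptavidin-bead capture and RT-PCR. Fitness is a logarithmic ratio of genotype enrichment to wild-type enrichment, from inverse-variance-weighted replicate averages, with the logarithm in base 2.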

Row | Variant | polymerase ribozyme fitness (log ratio)
1 | A66U U78A A91G G136A | ≤ -4.2
2 | A64C C75G U82G C95A C96U A107U G140C | ≤ -4.2
3 | G67C C69U G88A C93G G143C | ≤ -4.2
4 | A60U U139A A150U | ≤ -4.2
5 | A60G U144A | -0.159
6 | G62C C95U U146G | ≤ -4.2
7 | G68U G81A | ≤ -4.2
8 | U61A C85G U111G U134G | ≤ -4.2
9 | U61A G84C C85A C103G | ≤ -4.2
10 | A66C C93U | ≤ -4.2
11 | G67U G74C C103U A121U A137C U144G | ≤ -4.2
12 | A66G A73U G81A G92U U111C | ≤ -4.2
13 | C69G C87A A91C G126A | ≤ -4.2
14 | A66U U78G C85U A137C | ≤ -4.2
15 | G68A C96U C132G | ≤ -4.2
16 | U61A C149A | ≤ -4.2
17 | A60U G143A | -1.07
18 | A64U C87A U111G G141U | ≤ -4.2
19 | U61A A97G U130G C132G | ≤ -4.2
20 | A66C G92C C114U | ≤ -4.2
21 | A64C C85U G94U A121G | ≤ -4.2
22 | A60U C99U U148A G152A | ≤ -4.2
23 | C63A C87U G88A A115U | ≤ -4.2
24 | A64U A97G U111G A142U U145A | ≤ -4.2

Row | Variant | polymerase ribozyme fitness (log ratio)
25 | A66C C93U A110G C125A U135C | ≤ -4.2
26 | A60G G84U G88C C103U A119U | ≤ -4.2
27 | A64U C75G G80C C85A G100U U146A | ≤ -4.2
28 | A66G G71C C95A G126A | ≤ -4.2
29 | G67U G88U | ≤ -4.2
30 | G65A G71U C85A | ≤ -4.2
31 | A64C G71U A91G A150C | ≤ -4.2
32 | G67U U146C | -2.47
33 | U61A G124C | -2
34 | A66C C87U C132G G141C A147U A150U | ≤ -4.2
35 | G67C C85G G88U U101G A110G U134A A150C | ≤ -4.2
36 | G67A C85A A98C C105U | ≤ -4.2
37 | U61A C95A C108A C125A G140U | ≤ -4.2
38 | G65U G84U C103U A122G | ≤ -4.2
39 | G68C G83U G133U A137C | ≤ -4.2
40 | G65C G80A C103G | ≤ -4.2
41 | A60C G62C G83U G133A | ≤ -4.2
42 | A60U G83C C85A C96U G133U U135A | ≤ -4.2
43 | G59U U148C | -1.18
44 | A60C U82G G86A U146G | -3.33
45 | A64G C69G C75A C85A A89U C93A U104G | ≤ -4.2
46 | G67A A98U U139C U148A | ≤ -4.2
47 | A64C C85A C118G A121C | ≤ -4.2
48 | A60U G84A C116U | -1.05

Row | Variant | polymerase ribozyme fitness (log ratio)
49 | G67A U77C G92A A110G | ≤ -4.2
50 | U61A C76G A137U U148G | ≤ -4.2
51 | C63U C103G U146G | -2.3
52 | U61G G68A U77C C87U C93G C123U G126C U135C | ≤ -4.2
53 | C63A G92U C116U | -3.98
54 | A66G A89U C93U C95G | ≤ -4.2
55 | G65C C75U G126U | ≤ -4.2
56 | A64G G68A | ≤ -4.2
57 | G62A C99U | -2.24
58 | A64G G67C C95U A110G U139A | ≤ -4.2
59 | G62U A66G G68C G92A U104G G140U | ≤ -4.2
60 | G65A C69G U78A U90G C96A G100A C108A U145A | ≤ -4.2
61 | C63G U78A C79U C85U A98G A106U U134C A142G U146A | ≤ -4.2
62 | G65A G70A G133U U144G | ≤ -4.2
63 | G62A G68C C87U | ≤ -4.2
64 | G68C C93G | ≤ -4.2
65 | U61A G74A C85U C93U A107G | ≤ -4.2
66 | A66C C75A U82C G84A | ≤ -4.2
67 | A66C A89U C93A C125G G143A | ≤ -4.2
68 | C69A U109G A138G | ≤ -4.2
69 | C63U C85U C87U | -0.425
70 | G62C C72U A107G A113U | ≤ -4.2
71 | C63U G67A | ≤ -4.2
72 | G62C G83A | -2.25

Row | Variant | polymerase ribozyme fitness (log ratio)
73 | A66G G88A C99A G143U | ≤ -4.2
74 | A64G C75G G84U U127A A142U | ≤ -4.2
75 | G67C G83A C123G | ≤ -4.2
76 | U61A C69A C85A U139A C149G | ≤ -4.2
77 | A66U A89G | ≤ -4.2
78 | G62A U130G | -3.67
79 | G67A G68C G80C G84U A119U | ≤ -4.2
80 | G62C U78C C79U G136U | ≤ -4.2
81 | C63U C76A C103G U146G U148G | ≤ -4.2
82 | G67C G68A C85U C99A A115U | ≤ -4.2
83 | A64C C76A G81A | ≤ -4.2
84 | G65A C85A | -2.26
85 | G62A C69A C75G A115G | ≤ -4.2
86 | A60C C75U U77A C93A A150G | ≤ -4.2
87 | G65U C96A G117A | ≤ -4.2
88 | U61G C93A G140C U144G | ≤ -4.2
89 | G62A G65U G70U G88A C95U | ≤ -4.2
90 | U61A G84A U90G A119C C123A U148A | ≤ -4.2
91 | U61C G126A | -0.237
92 | G62U G100U U139G | ≤ -4.2
93 | C63U G70A C85G A138C | ≤ -4.2
94 | G65A C72G C85U C93U A106G | ≤ -4.2
95 | U61G C93A | -4.13
96 | C63U G70A G80C G83C C108G C116U | ≤ -4.2

Row | Variant | polymerase ribozyme fitness (log ratio)
97 | G67A U78G G86U C99U G141A | ≤ -4.2
98 | U61G C96U U144G | -1.1
99 | A66U G84U G94U C108G | ≤ -4.2
100 | U61G G68C C69U G84A C95G U127C G152U | ≤ -4.2
101 | G67C A73U A91G G136A A137G | ≤ -4.2
102 | C63U G65A A73U A115G U134G | ≤ -4.2
103 | C69G C85A G94U | -1.01
104 | A60G G117C G124U | 0.122
105 | G68C | -3.92
106 | G68U | -3.71
107 | G68A | -3.29
108 | A66G U111C | ≤ -4.2
109 | A60U G84U | -1.58
110 | C63A C76G C85U C96U A97G C116G | ≤ -4.2
111 | C69A U144C | -1.07
112 | U61C C85A A121G U135A | ≤ -4.2
113 | G65C U77A C87A A115U | ≤ -4.2
114 | A66U A73G A89U U104C A138G G141A | ≤ -4.2
115 | G65A A110U C114G G143A | ≤ -4.2
116 | C69A G84A A89G U146C | -2.59
117 | G68U A73G G83A A89U U90C G136C G141C | ≤ -4.2
118 | C63G G81C U82A | -0.391
119 | A60U | -0.665
120 | A60G | 0.0111

Row | Variant | polymerase ribozyme fitness (log ratio)
121 | G68A A98U A106G A120U C131G | ≤ -4.2
122 | A64U U148G | ≤ -4.2
123 | C63U U82G G126A G140A | -3.92
124 | C63U C93A C116G A142U G143C | ≤ -4.2
125 | U61G A73U C93A | ≤ -4.2
126 | G68A C99G | ≤ -4.2
127 | A60G G86C U148A | ≤ -4.2
128 | A60C G62C G88C | ≤ -4.2
129 | A60G A66C | ≤ -4.2
130 | C69G C103G C116U | -2.03
131 | G62C C87A U90A G136C | ≤ -4.2
132 | A66C G126A | ≤ -4.2
133 | A66G U78G A107C U134G G143C | ≤ -4.2
134 | G65A C105U | -0.804
135 | U61A U102G | ≤ -4.2
136 | A60C G80A | -2.27
137 | C63U A66G G83C A91G C93U A106G C114G G128A G141A | ≤ -4.2
138 | A60U A150C | -3.39
139 | C63U C85G U127A U139A U145C | ≤ -4.2
140 | A66C C79A C85G G92U U102A A137G | ≤ -4.2
141 | C63G G133U | -4.14
142 | G62A C76G G83U U135A | ≤ -4.2
143 | G62A C69U U77A C85G C118U U148C | ≤ -4.2
144 | U61A C85U A106C U111C G133A | ≤ -4.2

Row | Variant | polymerase ribozyme fitness (log ratio)
145 | G65U U82C A91G C96A C99U | ≤ -4.2
146 | A64C C72U G86A G88U A106C A122U | ≤ -4.2
147 | U61A C125U | -1.86
148 | G65A C85U U102G C132A | ≤ -4.2
149 | A66C A73G G80C C114A G141A | ≤ -4.2
150 | U61A U102G A106U G143A U151A | ≤ -4.2
151 | G68U C76U A98U C99G U102A C118U A120U | ≤ -4.2
152 | G65U C93A G117C | ≤ -4.2
153 | A64U G67C G74A C76A A91U A106C C125U | ≤ -4.2
154 | A66G C87U A107G C114U G117U | ≤ -4.2
155 | U61C G92A A120C C123A U144C | ≤ -4.2
156 | G67A C87U C103U | ≤ -4.2
157 | G67A C114U U134G A150C | ≤ -4.2
158 | G65C A89C G92A U102G C116U A137G | ≤ -4.2
159 | G68C C93G C131A | ≤ -4.2
160 | G62C G80U G141A | ≤ -4.2
161 | A60C U148G A150U | ≤ -4.2
162 | A60G C129G | -2.25
163 | G67C U82A U130G G143C | ≤ -4.2
164 | A60G G126A | 1.03
165 | G68A U82G A91U C99U | ≤ -4.2
166 | U61A C85A G141C | -2.36
167 | A64U A66U G94C A106G G133C A150G | ≤ -4.2
